# According to the supplement of paper PMC8728848:
# This is one part of the list.
# Experiments:
# Assay in all cases: glycan array binding signal (z-score within array); higher = stronger binding
# Details in all cases: glycan notation: IUPAC condensed, linker removed
# [1] = biological target: Neu5Ac(a2-3)Gal(b1-4)GlcNAc6S
# Outline: (§1)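 The Consortium for Functional Glycomics database supplied 3228 glycan arrays, of which those lacking an available protein sequence were dropped. The binding signal, a within-array Z-score, was averaged across arrays of the same protein sequence and across linkers. Negative scores can be read as non-binding.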
# [2] = biological target: Neu5Ac(a2-3)Gal(b1-4)[Fuc(a1-3)]GlcNAc
# Outline: as §1
# [3] = biological target: Neu5Ac(a2-3)Gal(b1-4)[Fuc(a1-3)]GlcNAc(b1-3)Gal
# Outline: as §1
# [4] = biological target: Neu5Ac(a2-3)Gal(b1-4)[Fuc(a1-3)]GlcNAc(b1-3)Gal(b1-4)GlcNAc
# Outline: as §1
# [5] = biological target: Neu5Ac(a2-3)Gal(b1-4)[Fuc(a1-3)]GlcNAc(b1-3)Gal(b1-4)[Fuc(a1-3)]GlcNAc(b1-3)Gal(b1-4)[Fuc(a1-3)]GlcNAc
# Outline: as §1
# [6] = biological target: Neu5Ac(a2-3)Gal(b1-4)[Fuc(a1-3)]GlcNAc6S
# Outline: as §1
# [7] = biological target: Neu5Ac(a2-3)Gal6S(b1-4)GlcNAc
# Outline: as §1
# [8] = biological target: Neu5Ac(a2-3)Gal6S(b1-4)[Fuc(a1-3)]GlcNAc
# Outline: as §1
# [9] = biological target: Neu5Ac(a2-3)GalNAc
# Outline: as §1
# [10] = biological target: Neu5Ac(a2-3)GalNAc(b1-4)GlcNAc
# Outline: as §1
# [11] = biological target: Neu5Ac(a2-3)[GalNAc(b1-4)]Gal(b1-4)Glc
# Outline: as §1
# [12] = biological target: Neu5Ac(a2-3)[GalNAc(b1-4)]Gal(b1-4)GlcNAc
# Outline: as §1
# [13] = biological target: Neu5Ac(a2-3)[Neu5Ac(a2-6)]GalNAc
# Outline: as §1
# [14] = biological target: Neu5Ac(a2-6)Gal(b1-4)GlcNAc
# Outline: as §1
# [15] = biological target: Neu5Ac(a2-6)Gal(b1-4)GlcNAc(b1-2)Man(a1-3)[Neu5Ac(a2-6)Gal(b1-4)GlcNAc(b1-2)Man(a1-6)]Man(b1-4)GlcNAc(b1-4)GlcNAc
# Outline: as §1
# [16] = biological target: Neu5Ac(a2-6)Gal(b1-4)GlcNAc(b1-3)Gal(b1-4)GlcNAc
# Outline: as §1
# [17] = biological target: Neu5Ac(a2-6)Gal(b1-4)GlcNAc(b1-3)Gal(b1-4)[Fuc(a1-3)]GlcNAc(b1-3)Gal(b1-4)[Fuc(a1-3)]GlcNAc
# Outline: as §1
# [18] = biological target: Neu5Ac(a2-6)Gal(b1-4)GlcNAc6S
# Outline: as §1
# [19] = biological target: Neu5Ac(a2-6)GalNAc
# Outline: as §1
# [20] = biological target: Neu5Ac(a2-6)GalNAc(b1-4)GlcNAc
# Outline: as §1
# [21] = biological target: Neu5Ac(a2-8)Neu5Ac
# Outline: as §1
# [22] = biological target: Neu5Ac(a2-8)Neu5Ac(a2-3)Gal(b1-4)Glc
# Outline: as §1
# [23] = biological target: Neu5Ac(a2-8)Neu5Ac(a2-3)[GalNAc(b1-4)]Gal(b1-4)Glc
# Outline: as §1
# [24] = biological target: Neu5Ac(a2-8)Neu5Ac(a2-8)Neu5Ac
# Outline: as §1
# [25] = biological target: Neu5Ac(a2-8)Neu5Ac(a2-8)Neu5Ac(a2-3)Gal(b1-4)Glc
# Outline: as §1
# [26] = biological target: Neu5Ac(a2-8)Neu5Ac(a2-8)Neu5Ac(a2-3)[GalNAc(b1-4)]Gal(b1-4)Glc
# Outline: as §1
# [27] = biological target: Neu5Ac(a2-8)Neu5Ac(a2-8)Neu5Ac(a2-8)Neu5Ac(a2-3)[GalNAc(b1-4)]Gal(b1-4)Glc
# Outline: as §1
# [28] = biological target: Neu5Ac9Ac(a2-6)Gal(b1-4)GlcNAc
# Outline: as §1
# [29] = biological target: Neu5Gc(a2-3)Gal(b1-3)GlcNAc
# Outline: as §1
# [30] = biological target: Neu5Gc(a2-3)Gal(b1-3)[Fuc(a1-4)]GlcNAc
# Outline: as §1
# [31] = biological target: Neu5Gc(a2-3)Gal(b1-4)Glc
# Outline: as §1
# [32] = biological target: Neu5Gc(a2-3)Gal(b1-4)GlcNAc
# Outline: as §1
# [33] = biological target: Neu5Gc(a2-3)Gal(b1-4)[Fuc(a1-4)]GlcNAc
# Outline: as §1
# [34] = biological target: Neu5Gc(a2-6)Gal(b1-4)GlcNAc
# Outline: as §1
# [35] = biological target: Neu5Gc(a2-6)GalNAc
# Outline: as §1
binder,measurement,setting,value
"CVNH0 (Neurospora crassa), Q7S6U4 (protein) GSHIGPYMSFHVTAEDARIEVRDNRTILFARLRREDGEWNDASYELDQIIGNNDGHFQWGGQNFTETAEDIRFHPKEGAAEQPILRARLRDCNGEFHDRDVNLTEIVENVNGEFQAKF",glycan array binding signal (z-score),[1],0.502
same,glycan array binding signal (z-score),[2],-0.396
same,glycan array binding signal (z-score),[3],-0.427
same,glycan array binding signal (z-score),[4],-0.17
same,glycan array binding signal (z-score),[5],-0.226
same,glycan array binding signal (z-score),[6],-0.433
same,glycan array binding signal (z-score),[7],-0.439
same,glycan array binding signal (z-score),[8],-0.401
same,glycan array binding signal (z-score),[9],0.426
same,glycan array binding signal (z-score),[10],-0.438
same,glycan array binding signal (z-score),[11],-0.424
same,glycan array binding signal (z-score),[12],-0.084
same,glycan array binding signal (z-score),[13],-0.407
same,glycan array binding signal (z-score),[14],-0.373
same,glycan array binding signal (z-score),[15],-0.408
same,glycan array binding signal (z-score),[16],-0.415
same,glycan array binding signal (z-score),[17],0.227
same,glycan array binding signal (z-score),[18],-0.448
same,glycan array binding signal (z-score),[19],-0.388
same,glycan array binding signal (z-score),[20],-0.229
same,glycan array binding signal (z-score),[21],-0.416
same,glycan array binding signal (z-score),[22],-0.439
same,glycan array binding signal (z-score),[23],-0.418
same,glycan array binding signal (z-score),[24],-0.434
same,glycan array binding signal (z-score),[25],-0.359
same,glycan array binding signal (z-score),[26],-0.392
same,glycan array binding signal (z-score),[27],-0.44
same,glycan array binding signal (z-score),[28],-0.431
same,glycan array binding signal (z-score),[29],-0.433
same,glycan array binding signal (z-score),[30],0.164
same,glycan array binding signal (z-score),[31],-0.422
same,glycan array binding signal (z-score),[32],-0.419
same,glycan array binding signal (z-score),[33],0.562
same,glycan array binding signal (z-score),[34],-0.367
same,glycan array binding signal (z-score),[35],-0.407
